# Source: PubChem BioAssay AID504706 (National Center for Advancing Translational Sciences (NCATS), 2011)
# In all, about 320,000 compounds went through this assay and about 200 (0.062%) were called active. This list was built around the results that the source calls inconclusive (neither active nor inactive); the mix of calls is not that of the screen. Calls come from the whole dose curve; as a rule, active = well fitted activation curve with a large enough effect; inconclusive = small, poorly fitted or top-dose-only effect; inactive = no such curve, though single readings can be large or run the other way. No potency is given beside an inconclusive call; the fits are too rough.
# Experiment: qHTS assay for re-activators of p53 using a Luc reporter; note: nearly all actives have a fitted effect of over 45% in size
# Settings: H1299 p53-A138V BP100-luciferase reporter, luminescence, 24 h; series mostly up to 92.2 µM
# Procedure, shortened: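 p53-null H1299 cells stably carrying temperature-sensitive p53-A138V and a BP100-luciferase reporter were pinned with compounds (4-point, 1:5 series) and held 24 hrs at 37 deg C. Luminescence was read 10 min after detection reagent.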
# Potency is the fitted concentration of half-maximal effect; tags give direction and shape of the fitted curve.
row,Compound,Potency
1,Cc1ccc(-n2nc(C)c(C(C)(O)C(F)(F)F)c2N)cc1 (stereo not drawn),"inconclusive [activator, single point]"
2,Cc1ccc(/C(=N/Nc2ncnc3ccccc23)C(=O)O)cc1,"inconclusive [activator, partial curve, poor fit]"
3,O=C(Nc1nc2ccccc2s1)c1cccc(N2C(=O)CCC2=O)c1,inactive
4,CC(=O)NCCCNc1ccc([N+](=O)[O-])cc1,"inconclusive [activator, partial curve, poor fit]"
5,CCOc1nc(Oc2cccc(C(=O)O)c2)nc(Oc2cccc(C(=O)O)c2)n1,inactive
6,COc1ccc(-c2ccc(-c3nnn(CC(C)=O)n3)cc2)cc1,"inconclusive [activator, partial curve, poor fit]"
7,Cc1ccc(NC(=S)NCc2cccs2)cc1,inactive
8,CCOc1ccc(N2Nc3n[nH]c(N)c3N2)cc1,"inconclusive [activator, partial curve, poor fit]"
9,O=C(OCc1ccccc1)c1cccc(-c2nnn(Cc3ccccc3)n2)c1,"inconclusive [activator, partial curve, poor fit]"
10,CC(C)(C)NC(=O)CSc1nnnn1C(C)(C)C,"inconclusive [activator, single point]"
11,O=C(CSc1nnc(Cc2cccs2)n1-c1ccccc1)Nc1ccc2c(c1)OCCO2,inactive
12,CC(C)(C)NS(=O)(=O)c1ccc(NC(=O)CS(=O)(=O)Cc2ccccc2)cc1,inactive
13,CC1CCCN(C(=O)CSc2nnc(-c3cccs3)o2)C1 (stereo not drawn),"inconclusive [activator, partial curve, poor fit]"
14,COc1ccc(Cl)cc1/C=C/c1ccc2cccc(O)c2n1,"inconclusive [activator, partial curve, poor fit]"
15,Cc1cccnc1NC(=O)NC(=O)c1ccc(C(C)(C)C)s1,inactive
16,COc1ccc(-c2cc(=NC(CC(C)C)C(=O)O)c3cc(C)ccc3o2)cc1 (stereo not drawn),"inconclusive [activator, partial curve, poor fit]"
17,CCc1nnc(NC(=O)c2cccc(OC)c2)s1,"inconclusive [activator, full curve, poor fit]"
18,Cc1ccc(-c2cc(-c3nnc(SCC(=O)N(C)CCC#N)n3N)c3ccccc3n2)cc1,inactive
19,CN(c1ccccc1)c1nc(N)c([N+](=O)[O-])c(Nc2ccccc2)n1,inactive
20,COc1cc(NC(=O)C/C(C)=N/NC(=O)C2CCCCC2)c(OC)cc1Cl,inactive
21,Cc1ccccc1CN1CCSc2sccc2C1=O,"inconclusive [activator, partial curve, poor fit]"
22,CC(C)CCn1c(Sc2nc3ccccc3o2)nc2c1c(=O)[nH]c(=O)n2C,"inconclusive [activator, partial curve]"
23,O=C(O)c1cccc(Nc2ncnc3c2cnn3-c2ccccc2)c1,"inconclusive [activator, partial curve, poor fit]"

row,Compound,Potency
1,CC(C)c1nc2oc3ccccc3c(=O)c2c(=O)n1-c1ccccc1,"inconclusive [activator, single point]"
2,COc1cc(C)nc2nc(SCc3ccccc3)nn12,"inconclusive [activator, single point]"
3,CCn1c(-c2ccco2)nc2ccccc21,"inconclusive [activator, full curve, poor fit]"
4,C/C(=N/Oc1nc(C)cc(C)n1)c1ccc(F)cc1,"inconclusive [activator, full curve, poor fit]"
5,CCOC(=O)/C=C1\Nc2ccccc2OC1=O,"inconclusive [activator, full curve, poor fit]"
6,CN(CC1CCN(CCc2cccc(C(F)(F)F)c2)CC1)C(=O)c1ccc(F)cc1,"inconclusive [activator, full curve, poor fit]"
7,CC(=O)c1sc(NC(=O)CN2C(=O)C3CCCCC3C2=O)nc1-c1ccccc1 (stereo not drawn),inactive
8,CC1CCN(CCc2nc3cc(NS(=O)(=O)c4ccccc4)ccc3n2C)CC1,"inconclusive [activator, partial curve, poor fit]"
9,Cc1onc(-c2ccccc2Cl)c1C(=O)O/N=C(\N)c1ccc([N+](=O)[O-])o1,inactive
10,COc1ccc(C2=NCCc3cc(OC)c(OC)cc32)cc1OC,inactive
11,Fc1ccc(Nc2nc(-c3ccncc3)nc3ccccc23)cc1F,"inconclusive [activator, partial curve, poor fit]"
12,COc1ccc(S(=O)(=O)n2cccc2)c(OC)c1,"inconclusive [activator, single point]"
13,CN1CCN(c2ccccc2NC(=O)c2ccc(OCc3ccccc3)cc2)CC1,"inconclusive [activator, single point]"
14,Cc1cccc(NC(=O)COc2ccccc2)c1,"inconclusive [activator, partial curve, poor fit]"
15,O=C(O)CCn1c2ccccc2c2nc3ccccc3nc21,"inconclusive [activator, partial curve, poor fit]"
16,Cc1ccc(-c2nc(C#N)c(NCCc3ccccn3)o2)cc1,"inconclusive [activator, full curve, poor fit]"
17,N#C[C@@H]1[C@@H]2C(=O)N(c3ccc4c(c3)OCCO4)C(=O)[C@@H]2C2c3ccccc3C=CN21 (stereo partly drawn),"inconclusive [activator, single point]"
18,COc1ccc(/C=C2\N=C3CCCCCN3C2=O)cc1,inactive
19,COCC(C)NC(=O)c1cc(-c2ccc(O)cc2)on1 (stereo not drawn),"inconclusive [activator, partial curve, poor fit]"
20,C=CCn1c(-c2cc3c(s2)CCC(CC)C3)n[nH]c1=S (stereo not drawn),"inconclusive [activator, partial curve, poor fit]"
21,Oc1ccccc1/C=N/Nc1cc(N2CCCC2)nc(N2CCCC2)n1,inactive
22,FC(F)(F)c1ccccc1CN1CCCC(N2CCN(c3ccccc3)CC2)C1 (stereo not drawn),"inconclusive [activator, single point]"
23,Cc1c(C(=O)N2C[C@@H](C)O[C@@H](C)C2)oc2c(F)cccc12,"inconclusive [activator, partial curve, poor fit]"

row,Compound,Potency
1,COc1ccccc1OCC(O)Cn1c(=N)n(CCN2CCCCC2)c2ccccc21 (stereo not drawn),"inconclusive [activator, partial curve, poor fit]"
2,Cc1nc(NC(=O)C2CCCCC2C(=O)O)sc1C (stereo not drawn),"inconclusive [activator, single point]"
3,Cc1cc(N/C=C/C(=O)c2cccc3ccccc23)no1,"inconclusive [activator, single point]"
4,CCOC(=O)CN1C(=O)CN(c2ccc(C)cc2)C1=O,"inconclusive [activator, partial curve, poor fit]"
5,O=C(c1cccs1)N(C(=O)c1cccs1)c1ccccn1,"inconclusive [activator, partial curve, poor fit]"
6,CCn1c(CN2CCOCC2)nnc1SCC(=O)Nc1ccc(C(C)=O)cc1,inactive
7,O=C(COc1ccccc1)NNC(=O)c1cc2ccccc2oc1=O,"inconclusive [activator, full curve, poor fit]"
8,CCOC(=O)C1(Cc2cccc(OC)c2)CCCN(C(=O)c2cc(C)on2)C1 (stereo not drawn),"inconclusive [activator, full curve, poor fit]"
9,COc1ccc(/C=N/NC(=S)NCC2CCCO2)cc1 (stereo not drawn),inactive
10,CNC(=O)c1c(NC(=O)c2nc3ccccc3s2)sc2c1CCC2,"inconclusive [activator, partial curve, poor fit]"
11,COc1cc(/C=N/Nc2nc(Nc3ccccc3)nc(-n3nc(C)cc3C)n2)cc(OC)c1OC,"inconclusive [activator, partial curve, poor fit]"
12,Cc1cc(NC(=S)NC(=O)/C=C/c2ccc(S(=O)(=O)N3CCOCC3)cc2)ccc1Br,inactive
13,C=CCn1c(=O)c2ccccc2n2c(SCc3nnc(-c4ccccc4Br)o3)nnc12,inactive
14,COC(=O)c1c(C)oc2ccc(N(C(C)=O)S(=O)(=O)c3ccccc3)cc12,inactive
15,Cc1ccc(NC(=O)CCN2CC(C)OC(C)C2)cc1C (stereo not drawn),"inconclusive [activator, single point]"
16,CC(=O)NS(=O)(=O)c1ccc(NC(=O)CC23CC4CC(CC(Br)(C4)C2)C3)cc1,inactive
17,O=C(CC1NCCNC1=O)Nc1ccc(Oc2ccccc2)cc1 (stereo not drawn),"inconclusive [activator, single point]"
18,CCOCC(=O)Nc1ccc(Br)c(C)c1,"inconclusive [activator, single point]"
19,CCN1CCN(S(=O)(=O)c2ccc(OC)c(Br)c2)CC1,"inconclusive [activator, partial curve, poor fit]"
20,Cn1c(SCC(=O)NCC2CCCO2)ncc(C(=O)Nc2ccc(F)cc2)c1=O (stereo not drawn),"inconclusive [activator, single point]"
21,CC(=O)C1=C(O)C(=O)N(c2cccnc2)C1c1ccc(Cl)cc1 (stereo not drawn),"inconclusive [activator, single point]"
22,CC(=O)Nc1ccccc1C(=O)C(=O)Nc1ccc(C)c(C)c1,"inconclusive [activator, full curve, poor fit]"
